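In this assay, cells in 96-well plates receive the compound at five concentrations for 48 hours. Endpoints are linearly interpolated between the surrounding concentrations. The concentration for 50% growth inhibition is given as GI50.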 The source made the active and inactive calls. Cut-off read from the data, not from the text of the source: active = GI50 up to about 1.1 µM and inactive = higher.
System: NCI-H322M
Test: NCI-60 cell line screen, 48 h

Row | Compound | GI50
1 | CC(C)CC1c2[nH]c3ccccc3c2C[C@H]2C(=O)NC(CCC(=O)OC(C)(C)C)C(=O)N12 (some centres not stated) | inactive: 41.4 µM
2 | NCCSCc1ccccc1Cl | inactive: > 100 µM
3 | O=C(CCN1CCOCC1)Nc1ccc(F)cc1F | inactive: > 100 µM
4 | COc1cc2cc(C(=O)N3CC(COS(C)(=O)=O)c4ccc(O)cc43)[nH]c2c(OC)c1OC (configuration not stated) | active: 0.00132 µM
5 | O=C1c2ccccc2-c2c1c1ccccc1c(=O)n2-c1ccccc1 | inactive: 7.6 µM
6 | COc1nc(O)c(N)c(NC2OC(CO)C(O)C(O)C2O)n1 (configuration not stated) | inactive: > 100 µM
7 | COc1ccc(NC(=O)C(=O)Cc2nc3ccc(C(=O)c4ccccc4)cc3nc2O)c([N+](=O)[O-])c1 | inactive: 30.5 µM
8 | CCOc1ccccc1NC(=O)C(=O)CC(=O)c1sc(Nc2nnc(-c3ccc(Cl)c(Cl)c3)o2)nc1C | inactive: > 100 µM
9 | Nc1nccc(NCC2(CO)CC(CCc3ccccc3)C2)n1 (configuration not stated) | inactive: 19.1 µM
10 | CC(C)N(C(=O)C12C3C4C5(C(=O)O)C(C1C35I)C42C(=O)O)C(C)C (configuration not stated) | inactive: > 100 µM
11 | Nc1cc(-c2ccccc2)nn1-c1nsc2ccccc12 | inactive: > 100 µM
12 | COc1ccc(/N=C/N(C)C)c(C)c1 | inactive: 23.7 µM
13 | O=C1/C(=C/c2ccc3c(c2)OCO3)Sc2scc(-c3ccc(O)c(O)c3)[n+]21 | inactive: 13.2 µM
14 | Cc1ccc(I)cc1N=C=S | inactive: 23.9 µM
15 | O=C(c1ccc(Cl)cc1)N1N=C(c2ccc(Cl)cc2)CC1(O)c1cc(F)c(Cl)cc1Cl (configuration not stated) | inactive: 17.8 µM
16 | COc1ccc2c(c1)[n+]([O-])c(/C(C)=N/NC(=O)CC#N)c[n+]2[O-] | inactive: > 100 µM
17 | COc1ccc([C@@H]2OC(=O)C3C2C(=O)O[C@H]3c2ccc(OC)cc2)cc1 (some centres not stated) | inactive: > 100 µM
18 | C[n+]1c2ccccc2c2/c(=C\C#N)c3ccccc3n21 | inactive: 7.4 µM
19 | CN1C(=O)C(CC(=O)O)NC1=S (configuration not stated) | inactive: 40.8 µM
20 | CNc1ncnc2c1nnn2C | inactive: > 100 µM
21 | COC(=O)[C@@H](O)[C@](O)(CCC(C)C)C(=O)O[C@@H]1C(OC)=C[C@]23CCCN2CCc2cc4c(cc2[C@H]13)OCO4 | inactive: 2.96 µM
22 | CC(=O)Nc1ccc(N2C(=O)/C(=C\c3cccc(Oc4ccccc4)c3)SC2c2ccccc2)cc1 (configuration not stated) | inactive: 39.5 µM
23 | C#CCCOC(=O)CC1=C(C)/C(=C/c2ccc([S+](C)[O-])cc2)c2ccc(F)cc21 (configuration not stated) | inactive: 19.1 µM

Row | Compound | GI50
24 | COc1cccc(CC(=O)N2CCN(CCCc3ccccc3)CC2)c1 | inactive: > 100 µM
25 | CC(=O)OC1=CC(n2cc(F)c(=O)[nH]c2=O)OC(C)C1=O (configuration not stated) | inactive: 56.6 µM
26 | O=C(c1ccccc1)[C@H]1Nc2cnccc2C2c3ccccc3CC21 (some centres not stated) | inactive: 48.6 µM
27 | CCOc1ncn(-c2ccc(NC(=S)Nc3cccc(O)c3)cc2)n1 | inactive: > 100 µM
28 | O=C1Cc2c(-c3ccc(Cl)cc3)cc(-c3ccccc3)nc2-c2ccccc2N1 | inactive: 8.24 µM
29 | Nc1ccc2c(c1)C(=O)c1c(F)cccc1-2 | inactive: 56.6 µM
30 | COc1cc2oc(-c3ccc4c(c3)OCO4)c(OC)c(=O)c2c(OC)c1OC | inactive: > 100 µM
31 | CC1CCc2sc3nc(S)n(-c4ccccc4)c(=O)c3c2C1 (configuration not stated) | inactive: 68.2 µM
32 | COC(=O)C(Cc1nc2ccccc2nc1C)/C(=N\NC(N)=O)C(=O)Nc1cccc([N+](=O)[O-])c1 (configuration not stated) | inactive: > 100 µM
33 | C=C1CC2(C)CCC(OC(=O)C3(C)OC3C)C(C)(OC(C)=O)C2CC1=C(C)C (configuration not stated) | inactive: > 100 µM
34 | CCCCc1ccc(C#CC#Cc2ccc(CCCC)s2)s1 | inactive: > 100 µM
35 | CCCCNC(=S)N/N=C/c1cccc(C)n1 | inactive: 56.1 µM
36 | COc1ccccc1NC(=O)C(=O)C(C#N)CC(C)(C)C=O (configuration not stated) | inactive: > 100 µM
37 | NS(=O)(=O)c1ccc(NC(NC(=O)C(C(F)(F)F)C(F)(F)F)(C(F)(F)F)C(F)(F)F)cc1 | inactive: > 100 µM
38 | O=c1[nH]c(=S)c2cc3c(=S)[nH]c(=O)n(CCC(c4ccccc4)(c4ccccc4)c4ccccc4)c3nc2n1CCC(c1ccccc1)(c1ccccc1)c1ccccc1 | inactive: > 100 µM
39 | C=CCCC(=O)CC(O)(C(F)(F)F)C(F)(F)F | inactive: > 100 µM
40 | [O-]c1c[n+](CCCC[n+]2cc([O-])on2)no1 | inactive: > 100 µM
41 | Cc1ccccc1Cn1nc2ccccc2cc1=O | inactive: > 100 µM
42 | CCOC(=O)C(CC(C)C)NC(=O)C(N)Cc1ccc(N(CCCl)CCCl)cc1 (configuration not stated) | inactive: 18.7 µM
43 | O=C(Cc1ccccc1)NNc1nc(NNC(=O)c2ccncc2)nc(Nc2ccccc2)n1 | inactive: > 10 µM
44 | O=C1C=C(NCCc2ccc(O)cc2)C(=O)C=C1NCCc1ccc(O)cc1 | inactive: > 100 µM
45 | O=C1CSC(c2c[nH]c3ccccc23)N1c1cccc(Cl)c1 (configuration not stated) | inactive: 45.7 µM
46 | CN(C)CC(C)(C)C(=O)/C=C/c1ccccc1 | inactive: 14.3 µM

Row | Compound | GI50
47 | CN1N=C(c2ccncc2)OC1c1ccc(Cl)cc1Cl (configuration not stated) | inactive: > 100 µM
48 | COc1cc(C[S+]([O-])c2ccc(O)cc2)cc(OC)c1OC (configuration not stated) | inactive: > 100 µM
49 | N#CCCN(C1=NN(C(=O)CC(=O)Nc2ccc(Cl)cc2)C(c2ccccc2)C1)c1ccc(Cl)cc1 (configuration not stated) | inactive: > 100 µM
50 | COCCOCN(C(=O)C1=CCC2(CC1)OCCO2)c1ccccc1I | inactive: > 50 µM
51 | COC1(OC)c2no[n+]([O-])c2C(OC)(OC)c2c1no[n+]2[O-] | inactive: 16.6 µM
52 | C=CCNC(=S)OCCCCCCCCCC | inactive: 27.3 µM
53 | CC(NS(=O)(=O)c1ccc(Cl)cc1)C(=O)O (configuration not stated) | inactive: > 100 µM
54 | COc1ccc2nc(NC(=O)C(=O)C(C#N)c3ccc(CC#N)cc3)sc2c1 (configuration not stated) | inactive: > 100 µM
55 | O=C1c2ccccc2C(=O)c2c1ccc1c2N=C(c2ccc(F)cc2)CC(c2ccc(Cl)c(Cl)c2)N1 (configuration not stated) | inactive: 16.4 µM
56 | CCOC(=O)c1cccc([N+](=O)[O-])c1N | inactive: > 100 µM
57 | C=C[C@]1(C)CC(=O)C(C(C)C=O)[C@]12C(=O)Oc1cccc(C)c1C2=O (some centres not stated) | inactive: 18.7 µM
58 | Cc1ccc(-c2sc(-c3ccc(C)cc3)c3c2C2CCC3C2)cc1 | inactive: > 50 µM
59 | COC(=O)C1=C(C(=O)OC)C2(/N=C(\Nc3ccccc3)c3ccccc3)N(c3ccc(OC)cc3)CC(c3ccccc3)N2O1 (configuration not stated) | inactive: > 100 µM
60 | COc1ccc(NCC#N)cc1 | inactive: > 100 µM
61 | CC1=CC(C)C(O)C(C)/C=C\C(O)C/C=C(/C)C(=O)CC(O)C(C)\C=C/C=C\C=C/C(=O)NC2=C(O)C(=O)c3c(cc(C)c(O)c3C1=O)C2=O (configuration not stated) | inactive: > 100 µM
62 | COc1nc(C(=O)O)c(Cl)c(OC)c1Cl | inactive: > 100 µM
63 | COc1cccc2c1C1=CC(=O)CCC1C(C)(C)O2 (configuration not stated) | inactive: > 100 µM
64 | Nc1cc2c(nnn2C2OC(COCc3ccccc3)C(OCc3ccccc3)C2OCc2ccccc2)c(=O)[nH]1 (configuration not stated) | inactive: 27.4 µM
65 | CCOC(=O)/C(C#N)=C\C=C1/C=CN=C2NCCN21 | inactive: > 100 µM
66 | NC(=S)N/N=C/C(=C/Nc1ccccc1)[N+](=O)[O-] | inactive: > 100 µM
67 | CC(O)(Cc1ccccc1C#N)Cc1ccccc1C#N | inactive: > 100 µM
68 | CCSc1nc2cccc([N+](=O)[O-])c2n1CC | inactive: > 100 µM
69 | N=C(N)NS(=O)(=O)c1ccc(NNc2c3ccccc3nc3c(C(=O)Nc4ccc(S(N)(=O)=O)cc4)cccc23)cc1 | inactive: 32.4 µM

Row | Compound | GI50
70 | COc1nc(N)c(/N=C/C(OC(C)=O)C(OC(C)=O)C(COC(C)=O)OC(C)=O)c(=O)n1C (configuration not stated) | inactive: > 100 µM
71 | CCOC(=O)N1C2C=C(C)C(C3C(C)C(=O)N31)N(C(=O)c1ccccc1)O2 (configuration not stated) | inactive: > 100 µM
72 | COc1ccc(C(C#N)NNc2nc(C)cc(O)n2)cc1OC (configuration not stated) | inactive: > 100 µM
73 | Cn1c2ccccc2c(=NNc2ccccc2C(=O)O)c2ccccc21 | inactive: 19.4 µM
74 | COc1ccc(C2N3CCCCC3[C@@H]3c4[nH]c5ccccc5c4CCN23)c(OC)c1 (some centres not stated) | inactive: 37.5 µM
75 | COC(=O)c1c(O)ccc2c1c1c(n2CCc2ccccc2)C(=O)c2ccccc2C1=O | inactive: 15.8 µM
76 | COc1cc2cc(C(=O)N3CC(CCl)c4c3cc(NCCN)c3ccccc43)[nH]c2c(OC)c1OC (configuration not stated) | active: < 0.01 µM
77 | CCc1nn(CN2CCOCC2)c(=S)n1/N=C/c1ccc(-c2ccc(Cl)cc2)o1 | inactive: > 100 µM
78 | COC(=O)c1ccccc1C1CN=NC12Cc1c(C)ccc(C)c1C2=O (configuration not stated) | inactive: > 100 µM
79 | Nc1nc(NCC2(CO)CCC2)cc(=O)[nH]1 | inactive: > 100 µM
80 | CC1(O)C(C)(O)C2(C)O[Te]3(OC12C)OC1(C)C(C)(O)C(C)(O)C1(C)O3 (configuration not stated) | inactive: 83.8 µM
81 | O=C(NNC(=O)c1ccncc1)C(=O)Nc1cc(Cl)c(Cl)cc1Cl | inactive: > 100 µM
82 | COC(=O)[C@@](NC(=O)OCc1ccccc1)([C@H](C)O)C(F)(F)F | inactive: > 100 µM
83 | O=C(/C=C1\Nc2ncccc2N=C1CC(=O)c1ccccc1)c1ccccc1 | inactive: 14.8 µM
84 | N#Cc1c(-c2ccc(Cl)cc2)cc(-c2ccc(Nc3ccnc4cc(C(F)(F)F)ccc34)cc2)[nH]c1=O | inactive: 41.5 µM
85 | COCC1C(=O)c2cc3c(cc2C12C=CC1(C=C2)OCCO1)OCO3 (configuration not stated) | inactive: 15 µM
86 | CCOC(=O)C(NC(=O)c1ccc(/N=N/N(C)C)cc1)C(C)C (configuration not stated) | inactive: > 100 µM
87 | CC[S+]([O-])c1c2cc(OC)ccc2nc2ccc(OC)cc12 (configuration not stated) | inactive: 18.4 µM
88 | COc1cc(-c2ccc(/N=N/c3c(S(=O)(=O)O)cc4cc(S(=O)(=O)O)cc(N)c4c3O)c(OC)c2)ccc1/N=N/c1c(S(=O)(=O)O)cc2cc(S(=O)(=O)O)cc(N)c2c1O | inactive: 97.1 µM
89 | COc1ccc(/[N+]([O-])=C/c2ccc(OC(=S)S)c(OC)c2)cc1 | inactive: 32.5 µM
90 | CC12CC(Sc3ccccc3N1)c1ccccc1O2 (configuration not stated) | inactive: 17.7 µM
91 | CN1CC[C@]2(C)c3ccc(O)cc3CC3CCCC1C32C (some centres not stated) | inactive: > 100 µM
92 | CC1(C)CCC[C@](C)([C@H]2CC[C@]3(C)[C@@H]2[C@H](O)C[C@@H]2[C@@]4(C)CC[C@H](O)C(C)(C)[C@@H]4[C@H](O)C[C@]23C)O1 | inactive: 18.9 µM
